From the supplement of paper PMC3334620
Over roughly 33,000 sequences, “E-score (-0.5 to 0.5)” has its median near -0.012; the highest 2% begin near 0.27. The list shows a part of the results.

What follows are sequences tested against T1, Vhr1 (UniProt P40522) (assay: PBM E-score (8-mer binding enrichment) (E-score (-0.5 to 0.5)); higher = stronger / more preferred TF binding; most listed sequences are background and not binding sites). Conditions: protein concentration: 200 nM; construct: GST-full length.
T1 sequence: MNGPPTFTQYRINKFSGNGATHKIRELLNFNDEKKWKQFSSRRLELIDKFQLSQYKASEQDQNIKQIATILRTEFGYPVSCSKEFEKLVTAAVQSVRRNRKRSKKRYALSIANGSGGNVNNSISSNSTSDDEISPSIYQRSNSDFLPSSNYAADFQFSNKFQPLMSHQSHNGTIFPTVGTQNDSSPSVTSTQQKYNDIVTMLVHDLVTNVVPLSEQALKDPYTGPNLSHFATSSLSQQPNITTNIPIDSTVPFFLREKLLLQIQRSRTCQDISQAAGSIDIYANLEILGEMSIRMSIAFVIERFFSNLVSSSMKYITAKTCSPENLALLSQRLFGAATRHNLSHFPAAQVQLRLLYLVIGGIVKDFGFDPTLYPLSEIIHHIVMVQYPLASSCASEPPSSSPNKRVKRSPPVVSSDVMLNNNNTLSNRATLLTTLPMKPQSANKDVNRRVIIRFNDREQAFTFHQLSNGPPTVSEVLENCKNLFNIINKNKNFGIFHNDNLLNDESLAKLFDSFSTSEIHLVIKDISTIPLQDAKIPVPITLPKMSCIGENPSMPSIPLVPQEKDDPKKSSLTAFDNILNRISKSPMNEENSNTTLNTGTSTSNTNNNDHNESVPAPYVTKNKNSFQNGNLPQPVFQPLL
Summary of the method: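 E-scores (a modified Wilcoxon-Mann-Whitney statistic) were assigned by the Universal PBM Analysis Suite to every ungapped eight-base word pooled with its reverse complement. The input came from universal all-10-mer Agilent arrays made double-stranded by primer extension and probed with GST-tagged yeast transcription factors at about 100-200 nM. Fluorescent anti-GST detected bound protein, and masliner normalised the scans.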

Question: Which “PBM E-score” value does the source give for ATTCGTAC here?
Answer: 0.192

Question: With AAGAGATA as the sequence, how does the “PBM E-score” value read?
Answer: -0.188

Question: Which “PBM E-score” value does the source give for ACAGCTCC here?
Answer: 0.0267

Question: How did the “PBM E-score” value turn out when GATGTTCC was run?
Answer: 0.0387

Question: CGAGCTCG was tested. Which “PBM E-score” value did it give?
Answer: 0.307

Question: For GGCGTAGA, which “PBM E-score” value is on record?
Answer: 0.0231

Question: For CTAACACC, which “PBM E-score” value is on record?
Answer: 0.0542

Question: Which “PBM E-score” value does the source give for AATTCGCA here?
Answer: 0.0713

Question: GGGCTCAA was tested. Which “PBM E-score” value did it give?
Answer: -0.162

Question: With CAGAGGTA as the sequence, how does the “PBM E-score” value read?
Answer: -0.065

Question: GGATCCAC was tested. Which “PBM E-score” value did it give?
Answer: 0.118

Question: How did the “PBM E-score” value turn out when GATGCCGC was run?
Answer: -0.0247

Question: How did the “PBM E-score” value turn out when GACACTAC was run?
Answer: 0.161

Question: Which “PBM E-score” value does the source give for CTAGAATA here?
Answer: 0.0202

Question: ATACTCGC was tested. Which “PBM E-score” value did it give?
Answer: 0.0952

Question: Which “PBM E-score” value does the source give for GATCACGA here?
Answer: -0.00868

Question: CGCGTAGC was tested. Which “PBM E-score” value did it give?
Answer: -0.0272

Question: With CCCTACGG as the sequence, how does the “PBM E-score” value read?
Answer: -0.0881

Question: CCGCGGAG was tested. Which “PBM E-score” value did it give?
Answer: 0.154

Question: Which “PBM E-score” value does the source give for CAGACATA here?
Answer: 0.14

Question: For CCTTCAGC, which “PBM E-score” value is on record?
Answer: -0.11

Question: For GTCTTCAA, which “PBM E-score” value is on record?
Answer: -0.121

Question: Which “PBM E-score” value does the source give for ACTAGCGA here?
Answer: -0.0168

Question: How did the “PBM E-score” value turn out when AAACGGCA was run?
Answer: -0.0537

Question: Which “PBM E-score” value does the source give for ATACATCA here?
Answer: 0.21

Question: GCACAAAA was tested. Which “PBM E-score” value did it give?
Answer: 0.025

Question: With CACCATCG as the sequence, how does the “PBM E-score” value read?
Answer: -0.0838

Question: With ACCCTCTC as the sequence, how does the “PBM E-score” value read?
Answer: -0.203

Question: Which “PBM E-score” value does the source give for GTCCCTAA here?
Answer: -0.129

Question: Which “PBM E-score” value does the source give for CTCGCAAA here?
Answer: -0.0973

Question: With GACTGTAC as the sequence, how does the “PBM E-score” value read?
Answer: 0.132

Question: How did the “PBM E-score” value turn out when AGCAGAGC was run?
Answer: -0.0338

Question: AGGACGTC was tested. Which “PBM E-score” value did it give?
Answer: -0.114

Question: How did the “PBM E-score” value turn out when ACAATGCC was run?
Answer: 0.00379

Question: With ATAAAGGG as the sequence, how does the “PBM E-score” value read?
Answer: -0.143

Question: Which “PBM E-score” value does the source give for GCCTTGCA here?
Answer: -0.139

Question: CCTCTAAA was tested. Which “PBM E-score” value did it give?
Answer: -0.161

Question: With AGCATCTC as the sequence, how does the “PBM E-score” value read?
Answer: 0.0587

Question: How did the “PBM E-score” value turn out when CCTGATCA was run?
Answer: -0.122

Question: CGTCATCC was tested. Which “PBM E-score” value did it give?
Answer: 0.0455

Question: How did the “PBM E-score” value turn out when AAAGGATC was run?
Answer: -0.152

Question: CCTGGGAA was tested. Which “PBM E-score” value did it give?
Answer: 0.0187

Question: Which “PBM E-score” value does the source give for CCGATTCG here?
Answer: 0.232

Question: Which “PBM E-score” value does the source give for ACGGTCAA here?
Answer: 0.147

Question: For CATTACGA, which “PBM E-score” value is on record?
Answer: 0.137

Question: Which “PBM E-score” value does the source give for AACGATAA here?
Answer: -0.0588

Question: ATAACCCG was tested. Which “PBM E-score” value did it give?
Answer: -0.014

Question: How did the “PBM E-score” value turn out when CTGTACGA was run?
Answer: -0.00911

Question: AGTGTGAG was tested. Which “PBM E-score” value did it give?
Answer: 0.147

Question: With CAAATCCA as the sequence, how does the “PBM E-score” value read?
Answer: -0.0385

Question: For CGCCACCG, which “PBM E-score” value is on record?
Answer: 0.0792

Question: Which “PBM E-score” value does the source give for AAGGACTT here?
Answer: -0.318

Question: How did the “PBM E-score” value turn out when AGCCTCAT was run?
Answer: -0.0807

Question: How did the “PBM E-score” value turn out when ATCTCATC was run?
Answer: 0.0646

Question: How did the “PBM E-score” value turn out when CGAACCCA was run?
Answer: 0.0781

Question: How did the “PBM E-score” value turn out when AAACTCTC was run?
Answer: -0.145

Question: How did the “PBM E-score” value turn out when CATGGTTA was run?
Answer: 0.215

Question: Which “PBM E-score” value does the source give for AGAGCGGA here?
Answer: 0.0658

Question: AATCACCT was tested. Which “PBM E-score” value did it give?
Answer: 0.312

Question: How did the “PBM E-score” value turn out when AAGGGTCT was run?
Answer: -0.277

Question: Which “PBM E-score” value does the source give for CTTGGATA here?
Answer: -0.0436

Question: Which “PBM E-score” value does the source give for ACCAGTAG here?
Answer: -0.0112

Question: How did the “PBM E-score” value turn out when ATTGGCGA was run?
Answer: 0.073

Question: With GTTTAGGA as the sequence, how does the “PBM E-score” value read?
Answer: -0.379

Question: For GCGCGACC, which “PBM E-score” value is on record?
Answer: 0.174

Question: With GTCCATGA as the sequence, how does the “PBM E-score” value read?
Answer: 0.0204

Question: CAGAAGGA was tested. Which “PBM E-score” value did it give?
Answer: -0.285

Question: With AACCTAAG as the sequence, how does the “PBM E-score” value read?
Answer: -0.184

Question: With CAGTTAAA as the sequence, how does the “PBM E-score” value read?
Answer: -0.189

Question: With AGCCCTCG as the sequence, how does the “PBM E-score” value read?
Answer: -0.209

Question: Which “PBM E-score” value does the source give for TTCTTAAA here?
Answer: -0.216

Question: Which “PBM E-score” value does the source give for AACAGATG here?
Answer: -0.0163

Question: For CCGTATGC, which “PBM E-score” value is on record?
Answer: 0.0952

Question: For CACTGTCA, which “PBM E-score” value is on record?
Answer: 0.118

Question: For CTCGCCTA, which “PBM E-score” value is on record?
Answer: 0.098

Question: CAGGAAAA was tested. Which “PBM E-score” value did it give?
Answer: -0.109

Question: For CGCGAGAA, which “PBM E-score” value is on record?
Answer: -0.138

Question: For CCCGCAAA, which “PBM E-score” value is on record?
Answer: 0.0295

Question: How did the “PBM E-score” value turn out when AAACAAAA was run?
Answer: -0.188

Question: For TACCTAGA, which “PBM E-score” value is on record?
Answer: -0.0215

Question: Which “PBM E-score” value does the source give for AACTAGGG here?
Answer: -0.106

Question: With ACAAAAAA as the sequence, how does the “PBM E-score” value read?
Answer: -0.13

Question: Which “PBM E-score” value does the source give for CGCCTGCA here?
Answer: -0.134

Question: With ACGGACTG as the sequence, how does the “PBM E-score” value read?
Answer: -0.029

Question: For CGAACTAA, which “PBM E-score” value is on record?
Answer: -0.066

Question: With AGCCCGCT as the sequence, how does the “PBM E-score” value read?
Answer: -0.163
